In article PMC12136788 one finds binding signal data, which are given here for 22 molecules.

Where a chain is given by its changes, count along the chain named. Some of the results follow.

T1: UNK ZnF1-3 (human, UniProt Q9C0B0 31-174)
T1 sequence: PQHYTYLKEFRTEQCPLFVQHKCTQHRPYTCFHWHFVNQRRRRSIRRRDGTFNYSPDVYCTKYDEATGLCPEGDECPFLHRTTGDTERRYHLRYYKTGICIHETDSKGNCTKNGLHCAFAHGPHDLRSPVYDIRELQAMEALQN

B1: chr9:95013113:95013114:-_ENSG00000196305_ENST00000443024|hu_hu|hu_hu_hu_mus_False|48_78 (ssRNA)
RNA: GGGAGUUCUACAGUCCGACGAUCCUCAGUCAGAAAGGGCGUGUAAGGGGCCAUCAGUCUGCAAAGAGAAAGCAGGACACUGAACAGGGUUUCUAGGGCCAUGACACAGUCUUCCACCCCACUCUCACCCUUUAACCUCCUCCUCAACAGAGGAUUGAGCAUCA
B2: 49434091_49434211_7401_CDS_ENSG00000167548_ENST00000301067|human|control|control (ssRNA)
RNA: GGGAGUUCUACAGUCCGACGAUCAGUGUGGGCUAGAGACCCAGCCUUAAAGGCAACUUCAGGGGGCUGGGGUCGGGGUGGCUUAUGCAAUGGGGCAAAUGGGUCACGGGACUGAGGGCGUGAGGGUGGGCGAGAAUAAGGGUCCAACAGAGGAUUGAGCAUCA
B3: chr2:168010559:168010560:-_ENSMUSG00000051149_ENSMUST00000088001|perfect_dup|motif|central (ssRNA)
RNA: GGGAGUUCUACAGUCCGACGAUCUUCCAAAGUCUUUUUGUCUGCAUUGAAGGUACAGUAGGGGCAAUUAAGGAGAAUCCGGUUUUCAAAGUCUUCACUAUGGACAUUGCGGAAAUGACUUUUGUAGGCAGAGAAGAAUUUUGACAACAGAGGAUUGAGCAUCA
B4: chr14:103542484:103542485:-_ENSMUSG00000033004_ENSMUST00000161008|mus_hu|FALSE|FALSE (ssRNA)
RNA: GGGAGUUCUACAGUCCGACGAUCUUUGACAAAAUAUUGUUAAUGUGAUGAAAGACGUUGCUCUGAUGAAGGAACUGGUGAUCAGAUUGCUUGAAUUUGAGACUCCAGCACCUCAGGGCCAUUUGCUGUAAUGAACUGCCGCUGCAACAGAGGAUUGAGCAUCA
B5: chr1:95367794:95367795:-_ENSG00000117519_ENST00000538964|hu_mus|FALSE|FALSE (ssRNA)
RNA: GGGAGUUCUACAGUCCGACGAUCGUUUGCUUCAAAUAUAUCAUGGGGCUUCAUACCGUAAGCCUGGAUAGCUUUAAUGAAGUUGCCGAUAUUCUCCAACUGGGGCCAAUUUAGUGAGGAUUCGUUGACUUUCUUCACAGAGCCCAACAGAGGAUUGAGCAUCA
B6: chr7:135612270:135612271:-_ENSG00000105887_ENST00000393085|hu_mus|hu_hu_hu_mus_False|1_78 (ssRNA)
RNA: GGGAGUUCUACAGUCCGACGAUCGUUUUUUUCUGAGAUGUUAAAUAGUACUUCAGUAACAAAACUUACUUAACCUUUUAUUAAUGCGUGUUGUACCAAAAGCAGACAUUUUAGCUUCAUUUAUUCAAAAAUAUUAAGAACAUUCAACAGAGGAUUGAGCAUCA
B7: 44997657_44997777_1630_CDS_ENSMUSG00000038518_ENSMUST00000173246|mouse|control|control (ssRNA)
RNA: GGGAGUUCUACAGUCCGACGAUCGUUGGGUUUGGUUUCCUUGACCAGUUCUCUCUUGGCUUUGGUGUAUGUGACAGUCCCCUUGGUCACUGUGGCAGUGUACUUCACAGUUUUGGAUGGUGAAGGUCUGACUUCUCGGAUCUUCAACAGAGGAUUGAGCAUCA
B8: 72865189_72865309_3846_CDS_ENSG00000009954_ENST00000339594|human|control|control (ssRNA)
RNA: GGGAGUUCUACAGUCCGACGAUCAACUUUGCACCUAGCAUUUUCUGCGGACAUAUCCCACUUGAUACAGGCAUCAAGCAUCCCAAGCAGCACGUGCAUCCUGGAGAAAGUCUGAGCUUCCCGGAUUGCUGUCUUCCAUUUCUCCAACAGAGGAUUGAGCAUCA
B9: chr3:41277855:41277856:+_ENSG00000168036_ENST00000349496|hu_hu|motif|central (ssRNA)
RNA: GGGAGUUCUACAGUCCGACGAUCUUCAAUAGCUUCUGCAGCUUCCUUGUCCUGAGCAAGUUCACAGAGGACCCCUGCAGCGGCUCUUUGGAUGUUUUCAAUGGGAGAAUAAAGCAGCUGCACAAACAAUGGAAUGGUAUUUAGCAACAGAGGAUUGAGCAUCA
B10: chr11:110355629:110355630:+_ENSMUSG00000020623_ENSMUST00000020949|mus_hu|FALSE|FALSE (ssRNA)
RNA: GGGAGUUCUACAGUCCGACGAUCGUGAAUGACAGACAGCUUACUAUGUAAAUGUUCUAAUGCUUUUACAAUAGAAACUGCUAUUUUCCCUAAGAUGUCCUCUGGAAUUGUCUGGCCUUUAUCAAUAACUUGUUUGUAGAAUUUCAACAGAGGAUUGAGCAUCA
B11: 118483815_118484459_965_3pUTR_ENSG00000065183_ENST00000349139|human|control|control (ssRNA)
RNA: GGGAGUUCUACAGUCCGACGAUCUCUAGCUUUCUUCAUCUUCUUAUCCAUUUUCUUCUGAAUUUCCUUUUUGGAAAGGAUACAAAACAAUUCUAGCACAGAGUCAGUUCCAUGGCAAGCAAGAAUCCUGCCUGUCUUGUCGACCAACAGAGGAUUGAGCAUCA
B12: chr2:216981417:216981418:+_ENSG00000079246_ENST00000392132|hu_hu|hu_hu_hu_mus_True|28_48 (ssRNA)
RNA: GGGAGUUCUACAGUCCGACGAUCCUGAUACUGGUCCUUGCCAGCAAGGGCAUUAUCAGUGCCAUCUGUGCCAUAGAGGACUAACGCAAUCUCAUCCUUGCUCUCCGCAAACACCUGUCGUUGGACAAACAUAGUCAUCACUUUCAACAGAGGAUUGAGCAUCA
B13: chr9:95013113:95013114:-_ENSG00000196305_ENST00000443024|hu_hu|hu_hu_hu_mus_False|8_108 (ssRNA)
RNA: B1 RNA with C30G, G36A, A63C, G87U, U90C, U93C, G96A, C135U
B14: chr12:39763582:39763583:-_ENSG00000139116_ENST00000544797|hu_mus|hu_hu_hu_mus_False|1_8 (ssRNA)
RNA: GGGAGUUCUACAGUCCGACGAUCCUCUAGGAACUGGGCAUUCACUUUGAAUUCAGGAGGGGGCAGCCCGUUUUUAAUCGCUGAGGUCUUUUUCUCAUCAAUACUCUUGAACAGGUGUCUAACAGCACGAGAAAUAAUACCCAGCAACAGAGGAUUGAGCAUCA
B15: chr3:119450855:119450856:-_ENSMUSG00000028134_ENSMUST00000029780|mus_hu|mus_mus_mus_hu_False|58_78 (ssRNA)
RNA: GGGAGUUCUACAGUCCGACGAUCUGUGGUGCCACUAAGAGGAGUAUUUGCUGUCUGGACCGCUGUCACAGCUUGAAGAACUACUUGAGCACGUUGGUUUAAUGUAUUAUCUGUCUUUAGUUCUUUGUGAUUCGAGUACUGGAUCAACAGAGGAUUGAGCAUCA
B16: chr14:53325254:53325255:-_ENSG00000073712_ENST00000341590|hu_hu|motif|central (ssRNA)
RNA: GGGAGUUCUACAGUCCGACGAUCAACCACUUUGCAAUCUACUUCAGUACAAAUGAAGGACAAUCGUACUUCAUCUGCAAACUCGGCGGUGACCAUUUUGAUUUCCCAGUUGACAUUCCACUGUUUCAUGUUGCUGAAACGCCACAACAGAGGAUUGAGCAUCA
B17: chr7:135832511:135832512:+_ENSMUSG00000042105_ENSMUST00000118605|mus_mus|motif|central (ssRNA)
RNA: GGGAGUUCUACAGUCCGACGAUCAUCCUGCCUAUUCUAGAGUUAGUAUUUACAUCAGUCAAAAACAUUAUGUCCUUAUCGGAAAGCAUUUGGCACAAAACAAGCGGUCGAGUGUUGUCGGCCUUUUUCCCCCUCCCACCCCAUCAACAGAGGAUUGAGCAUCA
B18: chr4:95690885:95690886:+_ENSMUSG00000028572_ENSMUST00000156910|mus_mus|mus_mus_mus_hu_False|8_98 (ssRNA)
RNA: GGGAGUUCUACAGUCCGACGAUCUUUAGAAAAUGUUAAUGUUAAAUCUAAAAUAUUUUCAAAGGCUUAUUUUAUUUUACCAGAAGUCACAGGCAAGCAGACACUACAAGAAUAUAUGAAAAUGAAACAACAGUGUAUAACUGUCAACAGAGGAUUGAGCAUCA
B19: 16769249_16779710_1388_3pUTR_ENSG00000145555_ENST00000513610|human|control|control (ssRNA)
RNA: GGGAGUUCUACAGUCCGACGAUCAGCAAGCAGCCUCGACACUUCCCGAACUUCCUCCUUGCUGAACUGCAUCACGUCCAUUGCCGUAAUAACUUCCCUAAAGGAUUCCUGGUCACUGAUUGUCUUGUCUUCUACACAUCCAGACAACAGAGGAUUGAGCAUCA
B20: 156751024_156752551_1840_CDS_ENSG00000055163_ENST00000521420|human|control|control (ssRNA)
RNA: GGGAGUUCUACAGUCCGACGAUCUAACUCCAGGAAGAAUUCUCGGAACCAGAGCUGGGAGAGGUCACAACACUGCUGCAGGGCUUCACUGAUGUUGAGCAGAUGUGUGAAGAAGAAGGACUGUUUGUGAAAGUCCUCUAUGGCCAACAGAGGAUUGAGCAUCA
B21: 69965070_69965190_5251_ncRNA_ENSMUSG00000029208_ENSMUST00000154728|mouse|control|control (ssRNA)
RNA: GGGAGUUCUACAGUCCGACGAUCGAAGAGUUUACAGUCUCUUCUGAUGUACCAUUCAUUCCCUCUGCUCCAAAGGUCUUAAAAAAAGAUCUUUUUUUCAUUCUAUCCCUAAUGCUGUCUCACAGUGUCUCUCCUCAGCACUUCCAACAGAGGAUUGAGCAUCA
B22: chr6:38652254:38652255:-_ENSG00000124767_ENST00000373365|hu_hu|hu_hu_hu_mus_False|1_48 (ssRNA)
RNA: GGGAGUUCUACAGUCCGACGAUCCGAGAACUUCAUAGCAGGGAAGUCAAGCUUCUGCAGGAGGGUCAGUCCAAGAACCCUCGUAUAAAAAUCCAGUGACUUCUUAGGAUCCUUAAUUCUUAGCAUCGUUUGCUGCAAUAGAAACAACAGAGGAUUGAGCAUCA

This test has as its target T1, UNK ZnF1-3. Put plainly: nsRBNS (natural sequence RNA bind-n-seq); RBNS binding buffer (assumed for nsRBNS): 25 mM Tris pH 7.5, 150 mM KCl, 3 mM MgCl2, 0.01% Triton X-100, 500 ug/ml BSA, 20 U/ml SUPERase-In, 4 C; UNK is unkempt and MSI1 is Musashi-1; names of the RNAs are library labels; protein concentration not given here; high values mean tight binding.
The molecule B1 gave a binding signal of 0.742 enrichment R.

B2 returned a binding signal of 2.33 enrichment R.

Molecule B3 came in with a binding signal of 1.29 enrichment R.

The molecule B4 registered a binding signal of 0.954 enrichment R.

On to B5, for which the binding signal is 0.659 enrichment R.

B6: the binding signal was found to be 0.716 enrichment R.

Consider B7, for which the binding signal worked out at 0.301 enrichment R.

For B8, the binding signal was 1.08 enrichment R.

In the case of B9, the binding signal amounted to 1.25 enrichment R.

B10 displayed a binding signal of 0.773 enrichment R.

On to B11, for which the binding signal is 0.814 enrichment R.

On to B12, for which the binding signal was 0.797 enrichment R.

Consider B13, for which the binding signal was found to be 1.34 enrichment R.

The molecule B14 had a binding signal of 1.03 enrichment R.

For B15, the binding signal turned out to be 0.899 enrichment R.

On to B16, for which the binding signal was 0.437 enrichment R.

B17 displayed a binding signal of 1.43 enrichment R.

In turn, B18 came in with a binding signal of 2.41 enrichment R.

Molecule B19 displayed a binding signal of 1.2 enrichment R.

B20 yielded a binding signal of 1.32 enrichment R.

In turn, B21 yielded a binding signal of 0.76 enrichment R.

Turning to B22, the binding signal was found to be 0.834 enrichment R.
